Values joined by “and” are separate entries in the source; they are usually repeats but may differ in a detail not shown here. Equal values may be shown once. Hit rate of the full screen: of about 360,000 compounds, about 6,000 (1.7%) were called active. The inconclusive results got no clear call from the source; some entries with a clear call stand among them for comparison. Calls follow the shape of the dose curve; as a rule, active = well fitted cell-killing curve with a large enough effect; inconclusive = small, poorly fitted or top-dose-only effect, or effect the other way; inactive = flat fitted curve, though single readings scatter. Potencies of inconclusive entries are left out as doubtful fits.
Assay: qHTS for induction of synthetic lethality in tumor cells producing 2HG: qHTS for the HT-1080-NT fibrosarcoma cell line;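 also: NT is the 2HG producing partner of a matched IDH1 knockdown line; nearly all actives have a fitted effect of over 55% in size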;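 as to activity, negative = less viability: 0% = DMSO-treated cells and -100% = media-only wells without cells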
Details: HT-1080-NT fibrosarcoma viability, CellTiter-Glo ATP luminescence, 48 h; activity, negative = less viability: at 46.1 µM (top of the series) unless noted
How it was run: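 Viability of the 2HG-overproducing fibrosarcoma line after 48 hours of compound exposure at 37 degrees C was determined by luminescence with CellTiter-Glo, and concentration-effect curves were then fitted and categorized.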
Potency is read from the fitted curve at half-maximal effect; tags tell the direction and shape of the fitted curve.

Q: With `C/C(=N\NC(=O)c1ccoc1C)c1ccccc1O` as the compound, how does the Potency read?
A: active: 3.26 µM

Q: For `C=CCn1c(C(CCC(C)C)CC(C)(C)O)n[nH]c1=S` (configuration not stated), which Potency is on record?
A: inconclusive [cytotoxic, single point]

Q: For `Cc1cc(N2CCN(c3ncccn3)CC2)nc2c(C)cccc12`, which Potency is on record?
A: inactive

Q: For `O=c1[nH][nH]c(C(F)(F)F)c1C=Nc1ccccc1`, which Potency is on record?
A: inactive

Q: Which Potency does the source give for `O=C(NCCC1CCCCN1S(=O)(=O)c1ccc(F)cc1)C(=O)Nc1ccccc1` (configuration not stated) here?
A: inactive

Q: Which Potency does the source give for `CCOC(=O)C1(CCCc2ccccc2)CCN(Cc2nccn2CC)CC1` here?
A: inconclusive [cytotoxic, single point]

Q: With `Cc1ccc(C(=O)Nc2ccccc2[N+](=O)[O-])cc1S(=O)(=O)N1CCOCC1` as the compound, how does the Potency read?
A: inconclusive [cytotoxic, single point]

Q: Which Potency does the source give for `O=C(COCc1cc(-c2ccc3c(c2)OCO3)on1)N1CCN(c2cccc(C(F)(F)F)c2)CC1` here?
A: inconclusive [cytotoxic, partial curve]

Q: With `COc1ccc(N(CC(=O)Nc2cc(C)ccc2OC)S(=O)(=O)c2c(C)noc2C)cc1` as the compound, how does the Potency read?
A: inconclusive [cytotoxic, single point]

Q: With `CCC1CCc2sc(C(=O)NCC(c3ccccc3OC)N3CCCC3)cc2C1` (configuration not stated) as the compound, how does the Potency read?
A: inconclusive [cytotoxic, single point]

Q: With `CC(OC(=O)c1cccc(-n2cnnn2)c1)C(=O)c1ccccc1` (configuration not stated) as the compound, how does the Potency read?
A: inactive

Q: With `CC[C@H](C)C(=O)O[C@H]1C[C@@H](C)C=C2C=C[C@H](C)[C@H](CC[C@@H]3C[C@@H](O)CC(=O)O3)[C@H]21` as the compound, how does the Potency read?
A: active: 7.31 µM and active: 18.4 µM

Q: Which Potency does the source give for `Cc1ccc(Cn2c(CN(C)Cc3ccccc3)nc3c2c(=O)n(C)c(=O)n3C)cc1` here?
A: inactive

Q: Which Potency does the source give for `O=[N+]([O-])c1ccc(NN=Cc2ccc(O)cc2O)nc1` here?
A: inconclusive [cytotoxic, partial curve, poor fit]

Q: For `COc1ccc(C(=O)NCC(=O)N/N=C/c2cn[nH]c2-c2ccccc2)cc1`, which Potency is on record?
A: inactive

Q: Which Potency does the source give for `C=CC[n+]1c(-c2ccc(OC)cc2)csc1NNC(=O)Nc1ccccc1` here?
A: inconclusive [cytotoxic, single point]

Q: For `Cc1cccc(Cn2nnc3c2C(=O)c2ccccc2C3=O)c1`, which Potency is on record?
A: inconclusive [cytotoxic, single point]

Q: Which Potency does the source give for `N#Cc1c(NC(=O)c2ccccc2)sc2c1CCC2` here?
A: inconclusive [cytotoxic, partial curve]

Q: Which Potency does the source give for `COc1ccc(-c2cn[nH]c2-c2ccc(OCc3ccccc3F)cc2O)cc1OC` here?
A: active: 29.1 µM

Q: With `Cc1ccc2nc(CSc3nnc(Nc4ccccc4F)s3)cc(=O)n2c1` as the compound, how does the Potency read?
A: inconclusive [cytotoxic, single point]

Q: Which Potency does the source give for `Cc1ccc(S(=O)(=O)N(C)c2ccc(C(=O)N3CCN(Cc4ccc5c(c4)OCO5)CC3)cc2)cc1` here?
A: inconclusive [cytotoxic, single point]

Q: Which Potency does the source give for `CN1CCOC(=O)/C1=N/Nc1cc(Cl)ccc1Cl` here?
A: inconclusive [cytotoxic, partial curve]

Q: With `COc1ccc(S(=O)(=O)Nc2cccc3c2O[C@H](CN(C)C(=O)Nc2c(C)noc2C)[C@@H](C)CN([C@H](C)CO)C3=O)cc1` as the compound, how does the Potency read?
A: inactive

Q: With `O=C(C=Cc1cccnc1)c1ccccc1` as the compound, how does the Potency read?
A: inconclusive [cytotoxic, single point]

Q: Which activity, negative = less viability does the source give for `O=C(Nc1ccc(S(=O)(=O)N2CCCC2)cc1)N1c2ccccc2Sc2ccccc21` here?
A: inconclusive: -3.56% [cytotoxic]

Q: With `CCOC(=O)CNC(=O)CSc1nnc(COc2ccc(Cl)cc2)n1CC` as the compound, how does the Potency read?
A: inconclusive [cytotoxic, single point]

Q: Which Potency does the source give for `COC(=O)CCC(=O)N(CCN(Cc1ccccc1)C(=O)CCC(=O)OC)Cc1ccccc1` here?
A: inconclusive [rising, single point]

Q: For `O=C(/C=C/c1cccc(Br)c1)NC1CCN(Cc2ccccc2)CC1`, which Potency is on record?
A: inactive

Q: With `CCc1ccc2c(c1)NC(=O)C2(C)Cc1ccc(OC(F)(F)F)cc1` (configuration not stated) as the compound, how does the Potency read?
A: inconclusive [cytotoxic, single point]

Q: With `COc1ccc(C(=O)C(CCCCC(CN(C)C)C(=O)c2ccc(OC)cc2)CN(C)C)cc1` (configuration not stated) as the compound, how does the Potency read?
A: inactive

Q: With `CN(C)CCCN(C(=O)c1ccc(S(=O)(=O)N2CCc3ccccc32)cc1)c1nc2c(Cl)cccc2s1` as the compound, how does the Potency read?
A: inconclusive [cytotoxic, single point]

Q: For `O=C(CCN1CCOCC1)c1ccccc1`, which Potency is on record?
A: inconclusive [cytotoxic, single point]

Q: For `CC(C)c1nc(SCC(=O)Nc2nc3c(s2)CCCC3)c2ccccc2n1`, which Potency is on record?
A: inconclusive [cytotoxic, single point]

Q: For `CCOc1cc(C(=O)N/N=C/C(Br)=C/c2ccccc2)cc(OCC)c1OCC`, which Potency is on record?
A: active: 3.66 µM

Q: For `COc1ccc(-c2ccc(C(=O)NCCN(C)C)c3occc23)c(C)c1`, which Potency is on record?
A: active: 29.1 µM

Q: Which Potency does the source give for `COc1ccc(-c2nc(NC(=O)c3ccc(OCC(=O)N4CCOCC4)c(OC)c3)sc2C)cc1` here?
A: inactive

Q: For `O=C(N(c1ccccc1)c1ccccc1)n1ccnc1`, which Potency is on record?
A: inactive

Q: Which Potency does the source give for `CCOC(=O)c1ccc(NC(=O)CN2C(=O)NC3(CCCCCC3)C2=O)cc1` here?
A: inconclusive [cytotoxic, single point]

Q: Which Potency does the source give for `c1ccc(-c2cn(-c3ccccc3)c3ncnc(N4CCCCC4)c23)cc1` here?
A: inconclusive [cytotoxic, single point]

Q: Which Potency does the source give for `Cc1ccc2c(c1)c1c3n2CC(=C2C(=O)OC(C)(C)OC2=O)NC3CCC1` (configuration not stated) here?
A: inconclusive [cytotoxic, single point]

Q: Which Potency does the source give for `Cc1cc(C(=O)Nc2ccccc2Cl)n(-c2ccccc2)n1` here?
A: inactive

Q: For `O=C(CCl)N1CCN(S(=O)(=O)c2ccc3ccccc3c2)CC1`, which Potency is on record?
A: inconclusive [cytotoxic, single point]

Q: With `CC(C)CC(=O)Nc1ccccc1-c1nnn(CC(=O)N2CCOCC2)n1` as the compound, how does the Potency read?
A: inactive

Q: With `CCCC(=O)Nc1ccc(C(=O)COC(=O)c2cc(C)oc2C)cc1` as the compound, how does the Potency read?
A: inactive

Q: Which Potency does the source give for `Cc1ccc([C@@H]2C[C@H]3[C@@H](CN2S(=O)(=O)c2ccc(Cl)cc2)C(=O)C[C@@H](c2ccccc2)N3S(=O)(=O)c2ccc(C)cc2)cc1` here?
A: inactive

Q: With `O=C(CN1CCC(c2nc3ccccc3s2)CC1)NCc1cccs1` as the compound, how does the Potency read?
A: active: 10 µM

Q: With `Clc1cccc(/C=N/Nc2nnc(Cl)c3ccccc23)c1` as the compound, how does the Potency read?
A: inconclusive [cytotoxic, single point]

Q: With `O=C(N/N=C/c1ccccc1O)NC12CC3CC(CC(C3)C1)C2` as the compound, how does the Potency read?
A: inconclusive [cytotoxic, single point]

Q: Which Potency does the source give for `COc1cccc(OCc2cc(C(=O)N3CCC(c4ccncc4)CC3)no2)c1` here?
A: inconclusive [cytotoxic, single point]

Q: Which Potency does the source give for `COC(=O)/C=C/C(=O)N1CCN(c2ccccc2C)CC1` here?
A: inactive

Q: For `COc1ccc(NC(=O)c2cc3ccccc3cc2OC)cc1`, which Potency is on record?
A: active: 16.4 µM

Q: Which Potency does the source give for `CCOC(=O)c1sc(NC(=O)CCN2CCN(CC)CC2)c(C(=O)OCC)c1C` here?
A: active: 23.1 µM

Q: For `CCOc1ccccc1OCCCNCc1ccccc1`, which Potency is on record?
A: inconclusive [cytotoxic, single point]

Q: Which Potency does the source give for `Cc1cc(C)c(NC(=O)C2CC(=O)N(C(C)C)C2)c(C)c1` (configuration not stated) here?
A: inactive

Q: With `O=C(Nc1ccn(CCCN(CCCn2ccc(NC(=O)OCc3ccccc3)nc2=O)CCc2cc3ccccc3[nH]2)c(=O)n1)OCc1ccccc1` as the compound, how does the Potency read?
A: inconclusive [cytotoxic, single point]

Q: With `CC(C)Cn1c(N)c(C(=O)COC(=O)c2ccc(F)cc2)c(=O)n(C)c1=O` as the compound, how does the Potency read?
A: inconclusive [cytotoxic, single point]

Q: Which Potency does the source give for `CC1Cc2[nH]c(=S)[nH]c(=O)c2C(C)O1` (configuration not stated) here?
A: inactive

Q: With `Nc1nn(-c2ccccc2)c(N)c1N=Nc1ccccc1F` as the compound, how does the Potency read?
A: active: 8.2 µM

Q: With `COc1ccc([N+](=O)[O-])cc1NC(=O)CSCc1ccccc1` as the compound, how does the Potency read?
A: inactive

Q: Which Potency does the source give for `Clc1ccc2nc(-c3ccccc3)nc(C(Cl)Cl)c2c1` here?
A: active: 4.61 µM

Q: For `Cn1cc(C(=O)NCc2cccs2)c(=O)c2cc(S(=O)(=O)N3CCCC3)ccc21`, which Potency is on record?
A: inactive

Q: With `OC(c1ccc(F)c(F)c1)c1nc(-c2ccc3ccccc3c2)cs1` (configuration not stated) as the compound, how does the Potency read?
A: inconclusive [cytotoxic, single point]

Q: With `COc1ccc(C=O)c(-c2c(-c3ccccc3OC)sc3ccccc23)c1` as the compound, how does the Potency read?
A: inconclusive [cytotoxic, single point]

Q: Which Potency does the source give for `Cc1ncc(CO)c(/C=N/NC(=O)c2cccc(S(=O)(=O)N3CCCC3)c2)c1O` here?
A: inconclusive [cytotoxic, single point]

Q: With `O=C(Nc1cccc([N+](=O)[O-])c1)C12CC3CC(C1)CC(n1cnc([N+](=O)[O-])n1)(C3)C2` as the compound, how does the Potency read?
A: inactive

Q: With `CN1/C(=C\C=C2/C(=O)Oc3ccccc3C2=O)C(C)(C)c2ccccc21` as the compound, how does the Potency read?
A: inconclusive [cytotoxic, single point]

Q: For `CCCCOC(=O)NC1CCc2cc(OC)c(OC)c(OC)c2-c2ccc(SC)c(=O)cc21` (configuration not stated), which Potency is on record?
A: active: 0.0082 µM

Q: With `Cc1nc(N)sc1-c1csc(Nc2ccc(Cl)cn2)n1` as the compound, how does the Potency read?
A: inconclusive [cytotoxic, single point]

Q: For `O=C1/C(=C/c2cccnc2)Sc2ccccc21`, which Potency is on record?
A: inactive

Q: With `CCOc1ccc(NC(=O)NC(C)c2ccc3c(c2)OCO3)cc1` (configuration not stated) as the compound, how does the Potency read?
A: inactive

Q: Which Potency does the source give for `COc1ccccc1NC(=O)c1ccc(Br)c(S(=O)(=O)N2CCCC2)c1` here?
A: inconclusive [cytotoxic, partial curve, poor fit]

Q: Which Potency does the source give for `CCCNc1nc2c(c(=O)n(C)c(=O)n2C)n1Cc1cccc(C)c1` here?
A: inconclusive [cytotoxic, single point]

Source: PubChem BioAssay AID686970 (National Center for Advancing Translational Sciences (NCATS), 2013)
